T1: murine platelet glycoprotein Ib alpha (GPIb alpha), on mouse platelets (mouse, UniProt O35930 17-734)
T1 construct: whole, on cells; also called murine GPIb alpha; murine platelets
T1 sequence (looked up): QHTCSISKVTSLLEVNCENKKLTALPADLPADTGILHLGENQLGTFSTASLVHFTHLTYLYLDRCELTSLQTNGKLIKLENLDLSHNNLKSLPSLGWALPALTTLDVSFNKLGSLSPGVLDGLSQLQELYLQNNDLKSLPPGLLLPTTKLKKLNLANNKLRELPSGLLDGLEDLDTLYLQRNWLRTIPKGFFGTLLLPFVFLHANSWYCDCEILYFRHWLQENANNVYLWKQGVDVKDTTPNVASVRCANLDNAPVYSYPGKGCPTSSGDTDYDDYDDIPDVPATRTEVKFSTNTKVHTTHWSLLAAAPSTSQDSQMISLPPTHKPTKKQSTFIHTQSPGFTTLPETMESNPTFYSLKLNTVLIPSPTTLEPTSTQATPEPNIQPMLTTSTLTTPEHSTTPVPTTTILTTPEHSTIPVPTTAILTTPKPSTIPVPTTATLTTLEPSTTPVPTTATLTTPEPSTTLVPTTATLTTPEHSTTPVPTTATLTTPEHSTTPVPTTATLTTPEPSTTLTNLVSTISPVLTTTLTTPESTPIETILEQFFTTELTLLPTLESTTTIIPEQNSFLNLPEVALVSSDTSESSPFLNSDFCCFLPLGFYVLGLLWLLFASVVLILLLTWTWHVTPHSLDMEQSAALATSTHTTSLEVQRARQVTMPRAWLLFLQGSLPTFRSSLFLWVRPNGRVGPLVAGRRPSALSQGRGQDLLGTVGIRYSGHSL

B1: recombinant human VWF-A1 protein, wild type (amino acid […], made in bacteria, His tag) (ligand)
chain: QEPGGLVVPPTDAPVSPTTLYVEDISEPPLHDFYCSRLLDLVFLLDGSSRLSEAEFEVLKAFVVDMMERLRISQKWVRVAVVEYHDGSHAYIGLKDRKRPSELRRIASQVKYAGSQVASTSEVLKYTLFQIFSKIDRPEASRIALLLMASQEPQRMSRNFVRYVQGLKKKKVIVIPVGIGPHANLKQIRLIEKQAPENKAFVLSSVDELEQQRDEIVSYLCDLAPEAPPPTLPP
modifications: single intra-chain disulfide bond between residues 1272 and 1458
notes: also called H VWF-A1; WT human VWF-A1; not shown: amino-terminal vector-derived tag with 6x histidine (10 amino acids from pQE9, told for the murine construct)
B2: recombinant human VWF-A1 protein with 1326H>R (ligand)
chain: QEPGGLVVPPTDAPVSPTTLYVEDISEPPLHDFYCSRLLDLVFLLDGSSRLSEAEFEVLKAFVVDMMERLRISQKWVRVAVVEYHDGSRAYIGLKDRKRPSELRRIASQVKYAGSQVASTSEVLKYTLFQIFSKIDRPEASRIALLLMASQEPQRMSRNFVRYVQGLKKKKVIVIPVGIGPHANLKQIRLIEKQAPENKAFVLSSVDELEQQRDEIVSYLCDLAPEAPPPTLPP
notes: also called His1326Arg; not shown: amino-terminal vector-derived tag with 6x histidine
B3: recombinant human VWF-A1 protein with the type 2B mutation Ile1309Val (1309I>V) (ligand)
chain: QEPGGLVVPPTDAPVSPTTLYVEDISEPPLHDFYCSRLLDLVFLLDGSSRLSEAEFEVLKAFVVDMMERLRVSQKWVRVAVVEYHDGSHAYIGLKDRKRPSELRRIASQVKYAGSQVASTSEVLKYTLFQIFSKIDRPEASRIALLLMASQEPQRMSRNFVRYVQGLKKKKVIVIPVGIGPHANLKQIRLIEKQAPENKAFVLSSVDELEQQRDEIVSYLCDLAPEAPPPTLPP
notes: also called type 2B mutation alone; not shown: amino-terminal vector-derived tag with 6x histidine
B4: human platelet glycoprotein Ib alpha (GPIb alpha), on human platelets (receptor)
chain: not shown
notes: whole, on cells; also called GPIbα; human GPIb alpha

Assays:
[1] = target: B4; assay: panel D: VWF-A1 coated beads on immobilized platelets labelled 'unfixed' (metabolically inactivated), WSS 1.5 dyn cm-2; R2 0.98
Protocol: (§1) The duration of these interactions are measured by recording images from a Nikon X60 DIC objective (oil immersion) viewed at a frame rate of 235 fps (Speed Vision Technologies, San Diego, Calif.) and subjected to wall shear stresses (WSS) ranging from 0.5 to 3.0 dyn cm⁻². The cellular off-rates are determined by plotting the natural log of the number of VWF-A1 coated microspheres that interacted as a function of time after the initiation of tethering, the slope of the line=−koff (s⁻¹) which is the inverse of the bond lifetime. The force acting on the tether bond was calculated from force balance equations as stated above and koff plotted as a function of these forces.

[2] = target: B4; assay: panel A: coated beads on surface-immobilized human platelets in flow, ln of bead tethering events against time; shear stress 3.0 dyn cm-2; R2 0.97
Protocol: as §1

[3] = target: B4; assay: panel D: VWF-A1 coated beads on immobilized platelets labelled 'fixed' (paraformaldehyde), WSS 1.5 dyn cm-2; R2 0.98
Protocol: as §1

[4] = target: B4; assay: panel A: coated beads on surface-immobilized human platelets in flow, ln of bead tethering events against time; shear stress 2.0 dyn cm-2; R2 0.95
Protocol: as §1

[5] = target: B4; assay: panel C: VWF-A1 coated beads on surface-immobilized human platelets in flow, ln of tethering events against interaction time; WSS 0.5 dyn cm-2; R2 0.98
Protocol: as §1

[6] = target: B4; assay: panel C: VWF-A1 coated beads on surface-immobilized human platelets in flow, ln of tethering events against interaction time; WSS 1.5 dyn cm-2; R2 0.96
Protocol: as §1

[7] = target: B4; assay: panel A: coated beads on surface-immobilized human platelets in flow, ln of bead tethering events against time; shear stress 0.5 dyn cm-2; R2 0.94
Protocol: The cellular off-rates are determined by plotting the natural log of the number of VWF-A1 coated microspheres that interacted as a function of time after the initiation of tethering, the slope of the line=−koff (s⁻¹) which is the inverse of the bond lifetime. The force acting on the tether bond was calculated from force balance equations as stated above and koff plotted as a function of these forces.
The use of beads with one uniform size and shape permits determination of the relationship between wall shear stress and the force directly acting on the GPIb alpha-VWF-A1 tether bond (Fb), a parameter difficult to estimate for discoid-shaped objects such as platelets. […] This antibody was made by immunizing Fischer 344 rats (3-4 months old) with recombinant WT protein. […] Spleens from animals with the highest antibody titers were harvested and splenocytes fused with Sp2/0 mouse myeloma cells (54).

[8] = target: B4; assay: panel C: VWF-A1 coated beads on surface-immobilized human platelets in flow, ln of tethering events against interaction time; WSS 1.0 dyn cm-2; R2 0.97
Protocol: as §1

[9] = target: T1, murine platelet glycoprotein Ib alpha …; assay: murine platelets perfused over coated mutant VWF-A1, wall shear rate 800 s-1; the sheet states that H563R corresponds to H1326R
[10] = target: B4; assay: human VWF-A1 coated beads on surface-immobilized human platelets, ln of bead tethering events against time; wall shear stress 1 dyn cm-2; R2 0.97
Protocol: as §1

[11] = target: T2, human plasma VWF (purified from or captured out of human plasma) (human, UniProt P04275 764-2813); assay: panel B: human platelets on surface-immobilized plasma VWF in flow, 1600 s-1
T2 construct: Plasma-derived multimeric VWF; also called human VWF; native human plasma VWF

In the case of B1, the koff [1] is reported as 7.48 s⁻¹, the koff [2] is reported as 9.6 s⁻¹ and the koff [3] is reported as 7.79 s⁻¹. For the same binder, the koff [4] was 8.1 s⁻¹, the koff [5] was 4.92 s⁻¹ and the koff [6] was 7.35 s⁻¹. For the same binder, the koff [7] was 5.1 s⁻¹ and the koff [8] was 6.54 s⁻¹.

B2: binds [9].

B3 gave a koff [10] of 0.98 s⁻¹.

B4: binds [11].

Source: patent US20090202429A1 (TRUSTEES OF COLUMBIA UNIVERSITY IN THE CITY OF NEW YORK, published 2009)
